In PubChem BioAssay AID504466 (National Center for Advancing Translational Sciences (NCATS), 2011):
About 4,200 (1.3%) of roughly 330,000 compounds were called active. This list was built around the results that the source calls inconclusive (neither active nor inactive); the mix of calls is not that of the screen. Calls follow the shape of the dose curve; as a rule, active = well fitted activation curve with a large enough effect; inconclusive = small, poorly fitted or top-dose-only effect; inactive = no such curve, though single readings can be large or run the other way. Potencies beside an inconclusive call are fits to weak or partial responses and may not hold up.
Potency is read from the fitted curve at half-maximal effect; tags tell the direction and shape of the fitted curve.

Assay: qHTS screen for small molecules that induce genotoxicity in human embryonic kidney (HEK293T) cells expressing luciferase-tagged ELG1; also: nearly all actives have a fitted effect of over 60% in size; as to activity change, positive = activation: % of control where 0% means no effect
Conditions: HEK293T ELG1-luciferase reporter, luminescence, 16 h; series mostly up to 46 µM; activity change, positive = activation: at the top concentration
Outline: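 After overnight (16 hr) compound treatment at 37 °C, ELG1-luciferase HEK293T cells were lysed with ONE-Glo; luminescence quantified 30 min later at room temperature.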
In the case of `NC(=O)C1CCN(CC(O)COCc2ccccc2Cl)CC1` (centres undefined), the “activity change, positive = activation” value is reported as inactive: -0.582%. In the case of `CC1(C2CC(C(F)(F)F)n3nc(C(=O)O)cc3N2)CC1` (centres undefined), the “activity change, positive = activation” value is reported as inactive: -4.02%. For `Cn1c2ccccc2c2ncn(CCC3=CCCCC3)c(=O)c21`, the Potency was inconclusive: 25.9 µM [activator, single point]. In the case of `CC(C)Nc1nc(SC(C)C(=O)Nc2ccccc2)nc(N(C)C)n1` (centres undefined), the Potency is reported as inconclusive: 25.9 µM [activator, partial curve, poor fit]. With `O=C(c1cccs1)c1coc2ccc(O)cc12` the Potency was inconclusive: 16.4 µM [activator, partial curve, poor fit]. With `CCN1C[C@@H]2[C@@H]3C(=O)N(C)C(=O)[C@@H]3[C@](CC)(C(=O)OC)N2C1=NC` the “activity change, positive = activation” value was inactive: 3.05%. In the case of `COc1ccc(C(C)=O)cc1CN1CCCCC1`, the “activity change, positive = activation” value is reported as inactive: 0.921%. In the case of `COc1ccc2nc(NC(=O)c3cnccn3)sc2c1`, the Potency is reported as inconclusive: 2.31 µM [activator, full curve, poor fit]. In the case of `COCCn1c(SCC(=O)c2c(N)n(C3CC3)c(=O)[nH]c2=O)nc2ccccc21`, the “activity change, positive = activation” value is reported as inactive: -0.276%. For `Cc1ccc2c(cnn2C(=O)CCCC(=O)NCc2cccc(F)c2)c1`, the “activity change, positive = activation” value was inactive: 3.33%. In the case of `CC[C@@H]1C(c2ccccc2)=NN(c2ccccc2)[C@H]1C(=O)N1CCOC1=O`, the “activity change, positive = activation” value is reported as inactive: 2.99%. In the case of `Cc1ccc(C(C[N+](=O)[O-])n2nc(C)cc2C)cc1` (centres undefined), the Potency is reported as inconclusive: 20 µM [activator, single point]. For `CCOC(=O)c1ccc(CNC(=O)c2cc(COc3ccccc3SC)on2)o1`, the Potency was inconclusive: 2.59 µM [activator, full curve]. In the case of `Cc1nc2cc(NC(=O)c3ccc(Br)s3)ccc2s1`, the Potency is reported as inconclusive: 0.651 µM [activator, partial curve, poor fit]. With `O=C(Nc1cccc(O)c1)c1noc2c1CCCCC2` the Potency was inconclusive: 3.66 µM [activator, single point]. With `Cc1ccc(NC(=O)c2ccc3nc[nH]c3c2)nc1` the “activity change, positive = activation” value was inactive: 10.3%. For `Cc1ccc(-c2nnc(CSc3nnc(C)s3)o2)cc1`, the Potency was inconclusive: 20.6 µM [activator, partial curve, poor fit]. In the case of `CC1=CC(C)(C)N(S(=O)(=O)c2ccc(C)cc2)c2ccc(C)cc21`, the Potency is reported as inconclusive: 4.61 µM [activator, partial curve, poor fit]. In the case of `CCOc1cnc(-c2ccc(OC)cc2)o1`, the Potency is reported as inconclusive: 18.4 µM [activator, partial curve, poor fit]. With `CC(C)(C)N(NC(=O)Nc1ccc(Cl)c(Cl)c1)C(=O)c1ccccc1` the “activity change, positive = activation” value was inactive: 1.44%. For `COc1ccccc1/C=C1\Cc2ccccc2C1=O`, the Potency was inconclusive: 23.1 µM [activator, partial curve, poor fit]. With `O=c1nc2c(-c3cccc(Br)c3)n[nH]n2c2ccccc12` the Potency was inconclusive: 4.11 µM [activator, partial curve, poor fit]. With `O=C(c1cc2c(=O)oc3ccccc3c2s1)N1CCOCC1` the “activity change, positive = activation” value was inactive: 0.959%. For `Cc1nc2nc(-c3cccnc3)nn2c(C)c1Cl`, the Potency was inconclusive: 25.9 µM [activator, single point]. For `Cn1cccc1-c1cc(C(=O)N/N=C/c2cccc(O)c2)[nH]n1`, the “activity change, positive = activation” value was inactive: 21.5%. In the case of `Cc1ccccc1Nc1nc(N)nc(CSc2nnc3ccccn23)n1`, the Potency is reported as inconclusive: 25.9 µM [activator, partial curve, poor fit]. With `Cc1ccc(NC(=O)CCn2cccc2)cc1` the Potency was inconclusive: 23.1 µM [activator, partial curve, poor fit]. In the case of `O=[N+]([O-])c1ccc(C(O)CN2CCN(Cc3ccccc3)CC2)cc1` (centres undefined), the “activity change, positive = activation” value is reported as inactive: -2.61%. In the case of `Cc1sc2ncn(/N=C/c3ccco3)c(=O)c2c1C`, the Potency is reported as inconclusive: 14.6 µM [activator, partial curve, poor fit]. With `COc1ccc(/C=N/NC(=O)c2ccc(COc3ccccc3Cl)o2)cc1` the “activity change, positive = activation” value was inactive: 12.7%. With `N/C(=N\OC(=O)c1cc(Cl)ccc1Cl)c1ccncc1` the Potency was inconclusive: 20.6 µM [activator, single point]. With `Cc1ccsc1/C=N/NC(=O)c1ccc([N+](=O)[O-])cc1` the Potency was inconclusive: 20.6 µM [activator, partial curve, poor fit]. With `CCOc1ccc(NC(=O)C(=O)N/N=C/c2ccccc2F)cc1` the Potency was inconclusive: 11.2 µM [activator, single point]. For `NC(=O)c1ccc[n+](CC(=O)Nc2ccccc2C(=O)O)c1`, the “activity change, positive = activation” value was inactive: 0.795%. For `COc1cccc(-n2nnc3c(=O)n(CC(=O)Nc4ccccc4C)cnc32)c1`, the Potency was inconclusive: 29.1 µM [activator, single point]. For `O=C(NCCc1ccc(Cl)cc1)C1COc2ccccc2O1` (centres undefined), the “activity change, positive = activation” value was inactive: 1.64%. With `CN(C)c1ccc(/C=C/c2cccc[n+]2[O-])cc1` the Potency was inconclusive: 18.3 µM [activator, single point]. In the case of `CCOC(=O)c1cc2sccc2n1CC(=O)C(C)(C)C`, the “activity change, positive = activation” value is reported as inactive: 2.36%. For `COC(=O)c1ccccc1OCCCOc1ccc(C=O)cc1OC`, the Potency was inconclusive: 3.66 µM [activator, full curve, poor fit]. In the case of `c1ccc(NCc2cccnc2)cc1`, the “activity change, positive = activation” value is reported as inactive: 0.667%. With `CCOc1ccc(NC(=O)c2ccc(NC(=O)Cc3n[nH]c(=O)c4ccccc34)cc2)cc1` the Potency was active: 9.2 µM. For `O=C(COC(=O)c1ccco1)c1ccccc1`, the Potency was inconclusive: 4.61 µM [activator, full curve, poor fit]. In the case of `O=C(NC1CCCC1)c1cc(-c2cccs2)on1`, the Potency is reported as active: 9.2 µM. For `COc1cccc(/C(C#N)=C/c2c(-c3ccc(Cl)cc3)nc3c(C)cccn23)c1`, the “activity change, positive = activation” value was inactive: -17.3%. For `O=C(CSCc1ccc(Br)cc1)N1CCOCC1`, the Potency was inconclusive: 14.6 µM [activator, partial curve, poor fit]. With `Cc1ccc(NC(=S)c2ccc(N(C)C)cc2)cc1` the Potency was active: 3.66 µM. In the case of `CN1CCN(CC(=O)N(C)c2nc(-c3ccccc3)cs2)CC1`, the Potency is reported as inconclusive: 7.31 µM [activator, partial curve, poor fit]. For `Cc1cc(/C=C(\C#N)C(=O)N2CCOCC2)c(C)n1C1CCCC1`, the Potency was active: 1.64 µM. For `COc1ccc(C(C[N+](=O)[O-])c2c(C)[nH]n(-c3ccccc3)c2=O)cc1` (centres undefined), the Potency was inconclusive: 29.1 µM [activator, single point]. With `Cc1cc(C(=O)Nc2ccccn2)cs1` the Potency was inconclusive: 7.31 µM [activator, partial curve]. With `Cc1ccc(CNC(=O)Cn2ncn3cccc3c2=O)cc1` the Potency was inconclusive: 18.3 µM [activator, partial curve]. With `CC(=O)Nc1ccc(OCC(=O)N2CCC(Cc3ccccc3)CC2)cc1` the “activity change, positive = activation” value was inactive: -3.74%. For `O=C(O)c1cc(-n2[nH]c(=O)c3ccccc3c2=O)ccc1Cl`, the Potency was inconclusive: 18.3 µM [activator, single point]. With `COc1ccc(Cc2nnc(NC(=O)c3ccc(OC)cc3OC)s2)cc1` the Potency was inconclusive: 16.4 µM [activator, partial curve, poor fit]. For `O=c1[nH]c(N/N=C/c2ccc(O)cc2)nc2ccccc12`, the Potency was active: 20.6 µM. In the case of `CCc1ccc(C2NC(=O)c3ccccc3O2)cc1` (centres undefined), the “activity change, positive = activation” value is reported as inactive: 3.83%. For `CCN(CC)CC(=O)N1c2ccccc2CCc2ccc(NC(=O)c3cc(OC)c(OC)c(OC)c3)cc21`, the Potency was inconclusive: 29.1 µM [activator, partial curve, poor fit]. In the case of `O=C(c1cnn2c(C(F)F)cc(-c3ccccc3)nc12)N1CCc2ccccc21`, the “activity change, positive = activation” value is reported as inactive: -6.53%. For `Cc1ccc(OCC(=O)Nc2sc3c(c2C#N)CCC3)cc1`, the Potency was inconclusive: 20.6 µM [activator, partial curve, poor fit]. In the case of `Cc1ccc(-c2cc3ncc(C#N)c(N)n3n2)cc1`, the Potency is reported as inconclusive: 11.6 µM [activator, partial curve, poor fit]. For `CCOC(=O)C1CCN(C(=O)c2cc3c(-c4ccc(OC)c(OC)c4)nn(C)c3s2)CC1`, the “activity change, positive = activation” value was inactive: -2.19%. With `Cc1ccc(C(=O)OCC(=O)N2CCOCC2)cc1` the Potency was inconclusive: 23.1 µM [activator, single point]. With `O=c1n(Cc2ccccc2)c2cc(Cl)cnc2n1Cc1ccccc1` the Potency was inconclusive: 13 µM [activator, partial curve]. With `COc1ccc2cc(CCNC(=O)c3cccs3)c(=O)[nH]c2c1` the Potency was inconclusive: 6.51 µM [activator, partial curve]. With `Cc1cc(C(=O)Nc2ccc3c(c2)OCO3)cs1` the Potency was active: 7.31 µM. With `COc1cccc(CNc2ccccn2)c1O` the Potency was inconclusive: 18.3 µM [activator, partial curve, poor fit]. With `O=C(COc1ccccc1F)Nc1ccc2c(c1)CCC2` the Potency was inconclusive: 18.3 µM [activator, partial curve, poor fit]. In the case of `Cc1cc(O)c(NC(=O)c2cccc([N+](=O)[O-])c2)cc1C`, the Potency is reported as inconclusive: 10.3 µM [activator, partial curve, poor fit]. In the case of `COCC(=O)Nc1ccc(OCc2ccccc2)cc1`, the Potency is reported as inconclusive: 20.6 µM [activator, single point]. With `CCOC(=O)CSC1=NC(=O)/C(=C/c2ccc(Br)cc2)S1` the Potency was inconclusive: 20.6 µM [activator, single point]. For `Cc1ccc(/C(N)=N/OC(=O)CSc2ccccc2)cc1`, the Potency was inconclusive: 7.3 µM [activator, partial curve]. With `Cc1ccc2cc(CCNC(=O)c3cccs3)c(=O)[nH]c2c1C` the Potency was inconclusive: 7.31 µM [activator, partial curve]. In the case of `Cc1cccc2c1OCC/C2=N\NC(=O)COc1ccccc1Cl`, the Potency is reported as inconclusive: 6.51 µM [activator, partial curve]. For `CCOC(=O)/C(C#N)=C/c1ccc(N2CCCCC2)cc1`, the Potency was inconclusive: 11.6 µM [activator, partial curve].
